Measurements: PMC10904043
No constants are given. Whether binding was seen depends on the method and setting. In cells and extracts the contact can be indirect. Some binding calls cover weakened binding; strength is not graded here.

The chains behind the UniProt entries cited, without tags or fusion partners. Residues count along the entry.
UniProt P16671: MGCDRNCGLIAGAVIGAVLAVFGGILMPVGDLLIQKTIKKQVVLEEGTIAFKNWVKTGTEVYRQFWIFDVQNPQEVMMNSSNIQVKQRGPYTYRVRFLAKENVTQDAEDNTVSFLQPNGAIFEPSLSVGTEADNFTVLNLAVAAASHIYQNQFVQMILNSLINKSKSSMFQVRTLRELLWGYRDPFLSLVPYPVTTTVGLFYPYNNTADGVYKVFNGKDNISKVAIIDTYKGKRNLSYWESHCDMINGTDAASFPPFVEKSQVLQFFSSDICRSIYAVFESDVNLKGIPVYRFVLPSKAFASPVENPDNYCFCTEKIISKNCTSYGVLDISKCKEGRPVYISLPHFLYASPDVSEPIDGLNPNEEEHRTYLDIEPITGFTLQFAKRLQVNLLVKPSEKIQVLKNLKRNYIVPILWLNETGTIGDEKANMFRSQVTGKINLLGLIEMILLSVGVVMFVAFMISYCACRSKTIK
UniProt P04114, residues 28-4563: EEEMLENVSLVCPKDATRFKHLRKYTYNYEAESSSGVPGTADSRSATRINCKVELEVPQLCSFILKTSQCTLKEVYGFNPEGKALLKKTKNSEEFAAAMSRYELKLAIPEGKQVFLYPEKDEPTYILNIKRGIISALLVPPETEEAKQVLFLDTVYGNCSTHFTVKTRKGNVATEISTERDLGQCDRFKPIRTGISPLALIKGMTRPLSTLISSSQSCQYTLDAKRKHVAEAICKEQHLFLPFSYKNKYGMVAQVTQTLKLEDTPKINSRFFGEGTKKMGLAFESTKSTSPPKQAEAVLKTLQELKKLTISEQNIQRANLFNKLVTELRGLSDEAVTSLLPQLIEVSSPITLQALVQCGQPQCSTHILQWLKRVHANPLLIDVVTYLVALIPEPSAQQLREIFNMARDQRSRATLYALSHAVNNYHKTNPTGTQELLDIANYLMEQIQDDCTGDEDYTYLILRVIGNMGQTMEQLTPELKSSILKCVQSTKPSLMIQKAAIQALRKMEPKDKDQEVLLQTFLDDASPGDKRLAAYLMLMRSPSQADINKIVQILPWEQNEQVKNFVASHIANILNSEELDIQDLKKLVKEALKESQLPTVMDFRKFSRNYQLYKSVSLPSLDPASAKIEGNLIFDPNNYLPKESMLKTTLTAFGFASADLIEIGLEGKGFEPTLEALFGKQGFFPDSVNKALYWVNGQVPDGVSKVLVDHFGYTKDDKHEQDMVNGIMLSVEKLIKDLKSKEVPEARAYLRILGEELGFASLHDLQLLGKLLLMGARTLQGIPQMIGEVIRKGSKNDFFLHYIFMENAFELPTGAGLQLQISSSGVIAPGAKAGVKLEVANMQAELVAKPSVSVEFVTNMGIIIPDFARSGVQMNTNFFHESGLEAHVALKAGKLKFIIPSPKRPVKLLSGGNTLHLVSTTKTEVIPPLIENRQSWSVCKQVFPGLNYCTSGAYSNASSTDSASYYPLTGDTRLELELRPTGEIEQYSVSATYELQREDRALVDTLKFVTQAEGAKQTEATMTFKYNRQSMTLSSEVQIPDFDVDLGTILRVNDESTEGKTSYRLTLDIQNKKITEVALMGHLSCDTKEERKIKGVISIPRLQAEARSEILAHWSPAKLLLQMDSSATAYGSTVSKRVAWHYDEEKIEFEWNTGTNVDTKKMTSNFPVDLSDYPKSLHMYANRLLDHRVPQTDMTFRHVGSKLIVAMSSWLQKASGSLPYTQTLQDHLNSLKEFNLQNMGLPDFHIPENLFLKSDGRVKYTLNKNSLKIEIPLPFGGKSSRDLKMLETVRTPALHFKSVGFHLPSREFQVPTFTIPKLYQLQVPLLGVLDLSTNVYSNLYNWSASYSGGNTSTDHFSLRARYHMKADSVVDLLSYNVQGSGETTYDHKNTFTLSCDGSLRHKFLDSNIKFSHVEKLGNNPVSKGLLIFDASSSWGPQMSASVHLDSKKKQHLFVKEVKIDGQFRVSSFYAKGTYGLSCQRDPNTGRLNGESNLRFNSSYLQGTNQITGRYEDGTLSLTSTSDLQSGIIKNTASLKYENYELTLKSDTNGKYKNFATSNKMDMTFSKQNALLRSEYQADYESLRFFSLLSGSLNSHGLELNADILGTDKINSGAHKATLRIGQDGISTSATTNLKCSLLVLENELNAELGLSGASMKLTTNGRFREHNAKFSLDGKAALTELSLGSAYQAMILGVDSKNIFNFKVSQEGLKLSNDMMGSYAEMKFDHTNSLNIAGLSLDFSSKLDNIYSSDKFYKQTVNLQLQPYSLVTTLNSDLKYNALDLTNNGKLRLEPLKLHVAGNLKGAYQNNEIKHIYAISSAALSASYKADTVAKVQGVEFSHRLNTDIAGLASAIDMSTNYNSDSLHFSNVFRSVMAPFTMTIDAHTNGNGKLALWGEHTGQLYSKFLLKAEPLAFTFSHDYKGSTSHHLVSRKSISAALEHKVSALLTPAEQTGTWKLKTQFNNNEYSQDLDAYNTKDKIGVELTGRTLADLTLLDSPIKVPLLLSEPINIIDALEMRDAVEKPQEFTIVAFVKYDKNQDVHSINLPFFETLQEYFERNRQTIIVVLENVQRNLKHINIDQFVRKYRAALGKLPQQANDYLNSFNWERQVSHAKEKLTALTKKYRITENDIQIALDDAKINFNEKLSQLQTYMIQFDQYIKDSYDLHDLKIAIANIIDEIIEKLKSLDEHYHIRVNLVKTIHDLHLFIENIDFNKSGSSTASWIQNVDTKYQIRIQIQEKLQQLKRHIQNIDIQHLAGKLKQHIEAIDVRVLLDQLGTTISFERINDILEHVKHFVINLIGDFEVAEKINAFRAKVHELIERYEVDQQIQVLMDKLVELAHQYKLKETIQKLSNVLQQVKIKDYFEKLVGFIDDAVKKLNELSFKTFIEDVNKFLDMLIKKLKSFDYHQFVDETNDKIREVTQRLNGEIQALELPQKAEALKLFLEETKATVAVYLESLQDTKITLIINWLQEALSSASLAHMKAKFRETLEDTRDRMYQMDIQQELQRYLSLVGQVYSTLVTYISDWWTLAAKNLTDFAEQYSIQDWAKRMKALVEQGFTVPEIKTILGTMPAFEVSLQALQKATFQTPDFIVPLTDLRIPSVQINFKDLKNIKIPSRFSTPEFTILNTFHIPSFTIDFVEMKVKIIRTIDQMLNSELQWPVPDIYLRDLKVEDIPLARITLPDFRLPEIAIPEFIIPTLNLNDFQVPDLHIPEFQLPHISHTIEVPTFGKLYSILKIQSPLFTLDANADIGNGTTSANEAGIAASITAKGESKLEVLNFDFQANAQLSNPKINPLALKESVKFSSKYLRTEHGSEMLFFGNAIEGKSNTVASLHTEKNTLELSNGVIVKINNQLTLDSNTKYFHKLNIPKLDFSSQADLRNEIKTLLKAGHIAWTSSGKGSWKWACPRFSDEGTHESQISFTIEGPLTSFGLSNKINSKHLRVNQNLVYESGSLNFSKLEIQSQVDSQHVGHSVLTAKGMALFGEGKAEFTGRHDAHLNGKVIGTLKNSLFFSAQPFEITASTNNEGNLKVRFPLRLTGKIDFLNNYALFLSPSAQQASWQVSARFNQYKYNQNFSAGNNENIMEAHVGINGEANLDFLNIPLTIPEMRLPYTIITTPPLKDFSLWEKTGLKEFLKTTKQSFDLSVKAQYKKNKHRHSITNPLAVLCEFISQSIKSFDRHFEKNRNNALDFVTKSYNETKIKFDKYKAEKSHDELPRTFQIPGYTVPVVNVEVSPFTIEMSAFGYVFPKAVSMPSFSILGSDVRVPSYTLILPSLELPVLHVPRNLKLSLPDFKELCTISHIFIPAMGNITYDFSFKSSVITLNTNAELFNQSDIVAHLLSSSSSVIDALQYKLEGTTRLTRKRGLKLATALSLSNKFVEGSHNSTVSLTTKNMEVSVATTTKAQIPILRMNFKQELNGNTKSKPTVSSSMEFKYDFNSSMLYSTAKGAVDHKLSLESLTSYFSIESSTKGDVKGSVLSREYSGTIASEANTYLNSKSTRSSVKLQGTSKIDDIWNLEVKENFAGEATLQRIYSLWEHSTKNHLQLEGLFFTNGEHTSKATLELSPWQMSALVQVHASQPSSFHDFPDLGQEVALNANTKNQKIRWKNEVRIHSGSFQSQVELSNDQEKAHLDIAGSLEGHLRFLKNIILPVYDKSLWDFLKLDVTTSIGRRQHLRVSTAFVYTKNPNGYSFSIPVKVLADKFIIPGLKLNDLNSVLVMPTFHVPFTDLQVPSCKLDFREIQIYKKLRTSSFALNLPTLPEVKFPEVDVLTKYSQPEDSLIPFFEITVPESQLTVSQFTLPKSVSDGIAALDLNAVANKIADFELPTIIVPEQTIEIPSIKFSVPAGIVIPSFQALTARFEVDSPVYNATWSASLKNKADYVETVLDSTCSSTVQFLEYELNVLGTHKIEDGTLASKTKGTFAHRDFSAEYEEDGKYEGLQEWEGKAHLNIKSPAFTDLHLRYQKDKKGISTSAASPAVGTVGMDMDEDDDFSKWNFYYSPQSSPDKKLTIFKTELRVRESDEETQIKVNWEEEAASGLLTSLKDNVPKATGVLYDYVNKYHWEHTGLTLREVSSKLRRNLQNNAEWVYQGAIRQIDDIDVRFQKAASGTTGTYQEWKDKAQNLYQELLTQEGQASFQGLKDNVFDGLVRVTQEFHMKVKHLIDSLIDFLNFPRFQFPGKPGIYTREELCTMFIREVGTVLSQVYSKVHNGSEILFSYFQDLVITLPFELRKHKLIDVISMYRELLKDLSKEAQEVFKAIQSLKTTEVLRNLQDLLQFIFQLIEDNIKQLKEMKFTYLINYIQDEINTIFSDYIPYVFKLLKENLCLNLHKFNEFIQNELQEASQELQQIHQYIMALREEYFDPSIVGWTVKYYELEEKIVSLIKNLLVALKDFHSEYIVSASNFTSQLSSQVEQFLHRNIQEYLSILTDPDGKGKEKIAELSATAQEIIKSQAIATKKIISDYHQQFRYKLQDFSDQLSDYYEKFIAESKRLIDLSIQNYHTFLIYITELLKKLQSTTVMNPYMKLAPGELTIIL

Columns and labels:
[1] = molecular target: CD36 (human (endogenous in THP-1 and HMDMs)) (UniProt P16671); assay: proximity ligation; HMDMs treated with biotinylated LDL with or without LL37; PLA between LDL and LDL receptors (spatial correlation <40 nm); only the binder purified
[2] = molecular target: CD36 (human (endogenous in THP-1 and HMDMs)) (UniProt P16671); assay: proximity ligation; THP-1 cells treated with biotinylated LDL with or without LL37; PLA between LDL and LDL receptors (spatial correlation <40 nm); only the binder purified

binding [1]: binds
binding [2]: binds
Substance: biotinylated LDL (low density lipoprotein particle) (from UniProt P04114 28-4563) (complex)
